Test results as given in PubChem BioAssay AID1159614 (National Center for Advancing Translational Sciences (NCATS), 2016).
Out of some 45,000 compounds screened, about 65 (0.1%) were called active. The call rests on the fitted dose curve; in most records, active means well fitted activation curve with a large enough effect; inconclusive means small, poorly fitted or top-dose-only effect; inactive means no such curve, though single readings can be large or run the other way. Some of the results follow.

Each molecule was assayed against Galactocerebrosidase (Homo sapiens) (UniProt P54803) (assay: A Novel Cell-Based Assay to Identify Small Molecules for B -Galactocerebrosidase). Conditions: 145M-Twi-hGALC-G270D cells (Twitcher mouse brain line with human GALC G270D), HMU-beta-Gal fluorescence, 48 h; series mostly up to 57.5 µM; activation: at the top concentration.
Chain of UniProt P54803 (P54803 whole entry, looked up): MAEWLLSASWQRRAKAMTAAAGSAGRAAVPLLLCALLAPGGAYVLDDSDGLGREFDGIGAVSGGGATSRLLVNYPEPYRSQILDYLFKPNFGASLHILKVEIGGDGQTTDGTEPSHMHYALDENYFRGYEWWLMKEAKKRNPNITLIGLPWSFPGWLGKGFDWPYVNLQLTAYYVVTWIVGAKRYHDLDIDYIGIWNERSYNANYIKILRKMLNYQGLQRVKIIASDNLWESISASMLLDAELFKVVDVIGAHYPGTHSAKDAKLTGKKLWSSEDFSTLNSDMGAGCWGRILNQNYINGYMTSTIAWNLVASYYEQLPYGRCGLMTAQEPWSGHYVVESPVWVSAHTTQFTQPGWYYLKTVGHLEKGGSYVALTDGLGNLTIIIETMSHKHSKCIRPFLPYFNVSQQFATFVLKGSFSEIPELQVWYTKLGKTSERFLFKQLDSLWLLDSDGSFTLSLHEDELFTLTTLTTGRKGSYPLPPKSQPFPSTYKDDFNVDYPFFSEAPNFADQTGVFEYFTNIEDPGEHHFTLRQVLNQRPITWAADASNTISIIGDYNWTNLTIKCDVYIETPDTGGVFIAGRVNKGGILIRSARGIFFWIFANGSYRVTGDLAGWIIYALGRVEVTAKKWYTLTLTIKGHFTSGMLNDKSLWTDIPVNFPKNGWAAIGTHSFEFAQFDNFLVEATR
Summary of the method: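 Live 145M-Twi cells (Twitcher mouse brain-derived, GALC-null) stably expressing human GALC-G270D, with a wild-type GALC line, were compound-treated. Residual GALC activity was then read as fluorescence from 0.1 mM final HMU-β-gal at pH 5.2; higher signal means activation.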
Further: 0% is about no effect; nearly all actives have a fitted effect of over 65% in size.

activation, inactive:
Cc1ccc(CNC(=O)c2ccc(Cn3c(=O)c4ccccc4n(CC(=O)Nc4ccc(C)cc4)c3=O)cc2)cc1 -8.68%, Cc1cccc(NC(=O)Cn2cc(C(=O)c3ccco3)c3ccccc32)c1 -18.5%, COC(=O)c1c(NC(=O)/C(C#N)=C/c2ccccc2)sc2c1CCC2 -13.2%, CCOc1ccc(-n2cc(-c3ccccc3)c3c(N4CCN(c5ccccc5OC)CC4)ncnc32)cc1 -10.7%, CCOc1ccc(NC(=O)c2sc3nc4c(c(-c5ccc(OC)cc5)c3c2N)C(=O)CC(C)(C)C4)cc1 0.633%, CCCCN(CC)C(=O)CSc1c2c(nc3ccc(Cl)cc13)CCCC2 -11.7%, COc1ccc(-c2noc(-c3cccnc3N3CCN(c4ccc(OC)cc4)CC3)n2)cc1 -1.88%, O=C(Nc1cccc(Cl)c1)c1ccc2c(c1)CCN2S(=O)(=O)c1ccccc1 -7.61%, CCc1ccccc1Nc1nn2c(=O)c3ccc(C(=O)NCCCOC(C)C)cc3nc2s1 -23.9%, O=C(Nc1ccc2oc(-c3ccncc3)nc2c1)c1ccccc1Cl -17%, Cc1oc(-c2ccc(Cl)cc2)nc1CSc1nc2ncccc2[nH]1 1.76%, O=C(OCc1cc(=O)n2nc(C3CCCCC3)sc2n1)c1ccc(F)cc1 -4.21%, COc1cccc(NC(=O)c2ccc(-c3nc(COc4ccccc4)c(C)o3)cc2)c1 -1.05%, CCOCCCNC(=O)CN1C(=O)COc2ccc(S(=O)(=O)N3CCCC3)cc21 -0.936%, CCOC(=O)c1c(C)[nH]c(C)c1S(=O)(=O)N1CCCC(C(=O)NCc2ccc(Cl)cc2)C1 (configuration not stated) -11.7%, COc1ccccc1Nc1cc(C(=O)NC2CCC(C)CC2)c2ccccc2n1 (configuration not stated) -14%, CCn1nc(C)c(CCN(C)C(=O)Nc2cc(OC)c(OC)c(OC)c2)c1C -14.2%, CCOC(=O)c1cnn(-c2ccc(C(=O)Nc3cccc(C(C)=O)c3)cc2)c1N -4.83%, Cc1ccc(N2CC(NC(=O)c3ccc(S(=O)(=O)N4CCOCC4)cc3)CC2=O)cc1 (configuration not stated) -4.28%, CCN(C(=O)Nc1cn(CC(C)C)c(=O)c2ccccc12)c1cc(C)ccc1C -23.9%, Cc1c(Cl)cccc1NC(=O)C1CCN(c2ncnc3c2nc2n3CCCCC2)CC1 -15.1%, Cc1ccc2nc(Nc3ccc(C)c(F)c3)c3nncn3c2c1 -13.3%, Cc1ccc(CNC(=O)CCn2cnc3ccccc3c2=O)cc1 -5.64%, Fc1cccc(-c2nnn3c2nc(NCCc2ccccc2)c2ccccc23)c1 -1.23%, O=C(CCn1c(=O)c2cccn2c2cccnc21)N1CCN(c2ccccc2F)CC1 2.21%, COc1ccc2cc(C(=O)NCc3ccc4c(c3)CCN4C(=O)c3ccc(F)cc3)[nH]c2c1 -5.47%, O=C(COCc1cc(-c2cccs2)on1)N1CCN(c2cccc(Cl)c2)CC1 -8.42%, CC(C)OCCCNC(=O)Cn1ccc2cc(S(=O)(=O)N3CCCCCC3)ccc21 -8.89%, COc1ccc(CC(=O)NCCc2csc(-c3cccc(C)c3)n2)cc1 -12.5%, COc1ccc(C)cc1NS(=O)(=O)c1c(C(=O)N2CCCCCC2)c(C)n(C)c1C -14%, CC(C)CNC(=O)N1[C@H](c2cccs2)[C@@H](C)C(=O)[C@@H](C)[C@@H]1c1cccs1 -4.47%, Cc1cccc(OCC(=O)Nc2ccc(-c3nc4ccccc4o3)cc2)c1C -21.3%, CCn1c(=N)n(CCOc2ccc(Br)cc2)c2ccccc21 -9.59%, Cc1ccc(-n2c(=O)[nH]c3cc(C(=O)NCc4ccccc4)ccc3c2=O)cc1 0.619%, Cc1oc(-c2ccccc2Cl)nc1Cn1c(SCc2cccc(F)c2)nc2cccnc21 0.869%, Cc1nc(-c2ccccc2)sc1-c1ccc(SCC(=O)NCc2ccc(Cl)cc2)nn1 -8.7%, CC(=O)c1cccc(NC(=O)CC(c2ccc(C)cc2)N2Cc3ccccc3C2=O)c1 (configuration not stated) -23.5%, COc1cccc(-c2nnc(SCC(=O)N3CCC(C)CC3)o2)c1 -17.5%, O=C(OCc1cc(=O)n2nc(C3CCCCC3)sc2n1)c1ccccc1Cl -11.6%, COCCCNC(=O)c1ccc(-n2c(-c3ccccc3)cc3c2CCCC3)cc1 -12.9%, Cc1ccc(NC(=O)CCCn2c(=O)c3cccn3c3ccccc32)cc1C -10.9%, CC(C)CC(=O)n1nc(-c2cccnc2)nc1NCc1ccc(F)cc1 -14.7%, COc1ccc(OCC(=O)OCc2cc(=O)n3nc(-c4cccs4)sc3n2)cc1 -10.2%, OC[C@H]1O[C@@H]2O[C@H]3[C@H](O)[C@@H](O)[C@@H](O[C@H]4[C@H](O)[C@@H](O)[C@@H](O[C@H]5[C@H](O)[C@@H](O)[C@@H](O[C@H]6[C@H](O)[C@@H](O)[C@@H](O[C@H]7[C@H](O)[C@@H](O)[C@@H](O[C@H]8[C@H](O)[C@@H](O)[C@@H](O[C@H]1[C@H](O)[C@H]2O)O[C@@H]8CO)O[C@@H]7CO)O[C@@H]6CO)O[C@@H]5CO)O[C@@H]4CO)O[C@@H]3CO -17.3%, Cc1cc(C)n(-c2nc3ccccc3nc2Nc2ccc(Cl)c(C(=O)OC(C)C)c2)n1 -12%, N#Cc1c(C(F)(F)F)cc(-c2cccs2)nc1SCC(=O)Nc1ccccc1F 10.9%, CCc1ccc(O)c(C(=O)c2cnc3cc(-c4ccc(C)cc4)nn3c2)c1 3.43%, Cc1cc(C)cc(NC(=O)CSc2oc(-c3ccccc3)nc2S(=O)(=O)c2ccccc2)c1 -26.5%, Cc1ccc(Cl)cc1NC(=O)Cn1c(=O)n(Cc2ccccc2)c(=O)c2oc3ccccc3c21 -9.03%, CCn1cc2c(n1)-c1c(oc(C(=O)Nc3cccc(C)c3C)c1C)CC2 -8.52%, Cc1ccc(CCNC(=O)CCCn2c(=O)c3ccccc3n(Cc3ccccc3C#N)c2=O)cc1 -7.16%, Cc1ccc(OCC(=O)Nc2cccc(OCc3cc(=O)n4cccc(C)c4n3)c2)cc1C 8.14%, Cc1ccc(CNC(=O)CCc2c(C)nc3nc(C)nn3c2C)cc1 5.1%, CCOc1ccc(-c2cc(C(=O)NCc3ccccc3Cl)c3ccccc3n2)cc1 10.4%, O=C1Cc2cc(CCN3CCN(c4nsc5ccccc45)CC3)c(Cl)cc2N1 -8.75%, Cc1cc(C)cc(NS(=O)(=O)c2ccc3[nH]cc(C(=O)NC4CCCCC4)c(=O)c3c2)c1 -13.9%, CCn1cc(S(=O)(=O)c2ccccc2)c(=O)c2cc(F)c(N3CCCC3)cc21 -19.5%
